In publication PMC4336329 (PLoS ONE, 2015):
Out of some 310,000 compounds screened, about 14,000 (4.5%) showed an effect of 50% or more. The effect is printed as a negative number. The list shows a part of the results.

molecular target: human ether-à-go-go-related gene (hERG) potassium channel (human, UniProt Q12809); assay: primary screen, population patch clamp on CHO cells stably expressing hERG
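Further: peak tail current of the secondary pulse compared with the same well before compound.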

human ether-à-go-go-related gene (hERG) potassium channel, sequence (Q12809 whole entry, looked up): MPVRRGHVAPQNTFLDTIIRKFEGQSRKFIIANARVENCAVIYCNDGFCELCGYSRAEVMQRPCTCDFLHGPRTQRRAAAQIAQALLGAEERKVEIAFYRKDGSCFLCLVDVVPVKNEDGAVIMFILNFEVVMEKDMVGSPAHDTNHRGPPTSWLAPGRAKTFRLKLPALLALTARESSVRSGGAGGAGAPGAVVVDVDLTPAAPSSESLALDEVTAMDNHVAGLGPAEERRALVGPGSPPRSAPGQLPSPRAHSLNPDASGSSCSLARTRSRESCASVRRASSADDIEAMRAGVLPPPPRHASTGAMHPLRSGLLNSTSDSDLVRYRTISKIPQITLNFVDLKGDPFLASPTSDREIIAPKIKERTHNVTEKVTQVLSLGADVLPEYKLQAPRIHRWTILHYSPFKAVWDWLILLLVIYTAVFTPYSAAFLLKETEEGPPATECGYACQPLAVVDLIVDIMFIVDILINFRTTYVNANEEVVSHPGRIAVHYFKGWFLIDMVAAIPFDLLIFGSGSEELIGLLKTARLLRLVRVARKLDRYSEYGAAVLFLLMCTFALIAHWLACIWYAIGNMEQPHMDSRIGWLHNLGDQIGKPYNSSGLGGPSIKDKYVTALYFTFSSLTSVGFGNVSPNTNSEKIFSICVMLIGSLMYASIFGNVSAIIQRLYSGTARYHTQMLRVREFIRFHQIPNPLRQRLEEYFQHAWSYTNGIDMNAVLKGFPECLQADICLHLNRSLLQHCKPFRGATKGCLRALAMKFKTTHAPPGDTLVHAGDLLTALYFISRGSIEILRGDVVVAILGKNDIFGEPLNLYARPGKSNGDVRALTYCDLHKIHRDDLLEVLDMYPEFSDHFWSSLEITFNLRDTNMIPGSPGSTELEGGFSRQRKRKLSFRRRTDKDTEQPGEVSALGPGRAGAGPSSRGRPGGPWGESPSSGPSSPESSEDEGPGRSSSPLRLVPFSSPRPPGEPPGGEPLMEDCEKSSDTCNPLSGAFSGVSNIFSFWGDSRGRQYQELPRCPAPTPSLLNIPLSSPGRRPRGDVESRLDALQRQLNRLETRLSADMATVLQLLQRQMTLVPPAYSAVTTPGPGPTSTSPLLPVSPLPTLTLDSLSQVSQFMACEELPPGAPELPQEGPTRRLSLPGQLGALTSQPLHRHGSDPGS

Row | Compound | hERG current change (%, negative = inhibition) at 10uM [%]
1 | CCOC(=O)c1sc(=S)n(Cc2ccccc2)c1N | -3.73
2 | Cc1ccc(-c2nc(CS(=O)(=O)CC(=O)N3CCCCCC3)c(C)o2)cc1 | -14.1
3 | COC(=O)c1ccc(NC(=O)c2ccc[n+]([O-])c2)cc1 | 19.1
4 | COc1cccc(N2CC(C)Cn3c2nc2c3c(=O)[nH]c(=O)n2C)c1 (stereo not shown) | -1.59
5 | Cc1ccc(NC(=O)CSc2nnc(CNC(=O)c3ccco3)n2C)cc1C | -3.26
6 | NS(=O)(=O)c1ccc(N/N=C2/CCCCC2C2CCCCC2)c([N+](=O)[O-])c1 (stereo not shown) | 17.7
7 | COc1ccc(S(=O)(=O)N(CC(=O)NCC2CCCO2)C2CCCCC2)cc1OC (stereo not shown) | 3.59
8 | Cc1cc(C)cc(NC(=S)NCCc2c[nH]c3ccccc23)c1 | -5.57
9 | O=C(CSC1=Nc2ccccc2C2=NC(CC(=O)N3CCN(c4ccccc4)CC3)C(=O)N12)NCC1CCCO1 (stereo not shown) | -7.73
10 | Cc1ccc([N+](=O)[O-])cc1S(=O)(=O)NCc1cccnc1 | -14.7
11 | CCCCn1c(N)c(N(CCOC)C(=O)c2ccc(S(=O)(=O)N3CCCCCC3)cc2)c(=O)[nH]c1=O | 11.3
12 | N#Cc1nc(-c2ccco2)oc1N1CCN(c2ccccc2)CC1 | -62.9
13 | Cn1nc(C(=O)N2CCc3ccccc32)c2ccccc2c1=O | 9.27
14 | Cc1nc(-c2nc(C(=O)NNS(C)(=O)=O)cs2)cs1 | 4.39
15 | CC(=O)NCC(=O)N(c1ccccc1)C1(C(=O)NC2CCCCC2)CCCCC1 | 9.36
16 | CCc1cccc2sc(NC(=O)c3ccc(N4C(=O)CCC4=O)cc3)nc12 | 26.4
17 | O=C(COCc1cc(-c2ccc3c(c2)OCO3)on1)Nc1cccnc1 | 10
18 | Cc1cc(NC(=O)c2ccccc2C)no1 | 14.8
19 | c1ccc2oc(Cc3ccc(Cc4nc5ccccc5o4)cc3)nc2c1 | -12.2
20 | CCOC(=O)[C@@H]1[C@H]2COc3cc(OC)ccc3[C@@H]2N2C(=O)N(c3ccc(Br)cc3)C(=O)[C@@]12C | 4.22
21 | COc1cc(CNC(=O)c2ccc3oc(C(C)C)nc3c2)cc(OC)c1 | -5.12
22 | COc1ccc2nc(N(CCN(C)C)C(=O)c3ccc4c(c3)OCCO4)sc2c1.Cl | -35.3

Row | Compound | hERG current change (%, negative = inhibition) at 10uM [%]
23 | C=CCNC(=S)N1CCN(c2cc3c(cc2F)c(=O)c(C(=O)O)cn3CC)CC1 | 6.11
24 | O=C(O)/C=C/c1cccc(NC(=O)c2ccc(Cl)cc2)c1 | 15.5
25 | COC(=O)C1=C(C)N(c2cccc(C)c2)C(=O)/C1=C\c1cccs1 | 4.08
26 | Cc1ccc(NC(=O)CCc2nnc3ccc(N4CCC(C)CC4)nn23)nc1 | -11.5
27 | CN(C)CCCCOc1cccc(Br)c1.O=C(O)C(=O)O | -23.7
28 | CN1CC(C(=O)c2ccc(Cl)cc2)C(c2ccc(Cl)cc2Cl)C1 (stereo not shown) | -49.2
29 | Cc1ccccc1NC(=O)CN(C)S(=O)(=O)c1ccc2c(c1)n(C)c(=O)c(=O)n2C | -2.26
30 | O=C(COc1ccccc1Cl)NCCNC(=O)c1ccncc1 | 20.5
31 | Cc1c2cnn(CC(=O)NCc3ccccn3)c(=O)c2c(C)n1Cc1ccc(Cl)cc1 | -47.9
32 | COc1cccc(N2CC(C)Cn3c2nc2c3c(=O)n(CCN3CCOCC3)c(=O)n2C)c1 (stereo not shown) | -2.98
33 | Nc1cc([N+](=O)[O-])cc2oc(-c3ccccc3)cc12 | 15.9
34 | Fc1cccc(Nc2cc(-n3cccn3)ncn2)c1 | 2.01
35 | Fc1ccc(N2CCN(Cc3cn[nH]c3-c3ccccc3)CC2)cc1 | -59.2
36 | O=C1NC(=O)C2(CCCCCCCCCCC2)N1 | 8.87
37 | O=C(NC(=S)NCC1CCCO1)c1ccc(Cl)cc1Cl (stereo not shown) | 0.566
38 | CCOC(=O)c1[nH]ncc1CN1CCCC(C(=O)c2cc(Cl)ccc2OC)C1 (stereo not shown) | -71.1
39 | Cc1ccc(S(=O)(=O)NC(=O)Nc2nccs2)cc1 | 12.7
40 | CC(C)(C)NC(=O)NC(=O)CSc1nnc(COc2ccccc2Cl)o1 | -4.3
41 | O=C(Cc1ccccc1[N+](=O)[O-])NCCCN1CCOCC1 | 0.529
42 | CCc1ccccc1N1CCN(S(=O)(=O)c2cc(OC)ccc2OC)CC1 | -23.3
43 | O=C(Nc1cccc(Br)c1)c1c(O)c2c(n(Cc3ccccc3)c1=O)CCCC2 | 5.83
44 | Cc1ccc(NC(=O)c2c(Cl)n(C)c3ccccc23)cc1 | -8.66

Row | Compound | hERG current change (%, negative = inhibition) at 10uM [%]
45 | Cc1cc(C(=O)COC(=O)CNC(=O)c2ccc(F)cc2)c(C)n1Cc1ccco1 | -12.3
46 | O=C(Cc1c[nH]c2ccccc12)NCc1ccncc1 | 8.17
47 | CNCc1ccccc1OCC(=O)Nc1ccccc1OC | -14.1
48 | CNS(=O)(=O)c1ccc(N=Cc2c(C)[nH]n(-c3ccc(C)cc3C)c2=O)cc1 | 15.6
49 | COc1ccc(-c2csc3ncnc(N4CCN(S(=O)(=O)c5cccc(C(F)(F)F)c5)CC4)c23)cc1 | 4.22
50 | O=C(Nc1cccc2ccccc12)c1cccc(F)c1 | 13
51 | Clc1ncnc2c1oc1ccccc12 | 6.02
52 | CCN(CC)CCN(C(=O)c1ccc(C(=O)c2ccccc2)cc1)c1nc2cc3c(cc2s1)OCO3.Cl | -43.8
53 | CCCCN1C(=O)C(O)(c2ccccc2)c2cc(Br)ccc21 (stereo not shown) | -0.8
54 | OCC(O)C(O)C(O)C(O)c1nc2ccccc2[nH]1 (stereo not shown) | -8.26
55 | COc1cccc(C(=O)COc2ccc3c(C)c(Cc4ccccc4)c(=O)oc3c2)c1 | 14
56 | CCNC(=O)CC1C(=O)N(c2ccc(F)cc2)C(=O)N1CCc1sccc1C (stereo not shown) | -31.2
57 | CCN(CC(=O)N1CCOCC1)S(=O)(=O)c1cc(Cl)ccc1Cl | -24.6
58 | C=CCNC(=O)CN1CCN(Cc2ccc3c(c2)OCO3)CC1.Cl | 2.48
59 | CCO[C@@H]1OC(C(=O)N2CCN(Cc3ccccc3)CC2)=C[C@H](c2coc3ccccc3c2=O)[C@H]1CCCO | -18.6
60 | Cc1cc(C)c2c(N)c(C(=O)c3ccc(Cl)cc3Cl)sc2n1 | 1.01
61 | CC(=O)C1=C(O)C(=O)N(CCNCCO)C1c1ccccc1 (stereo not shown) | 5.73
62 | CCOCCCNC(=O)CN1C(=O)COc2ccc(S(=O)(=O)N3CCCC3)cc21 | 21.9
63 | O=C1c2oc3ccc(Cl)cc3c(=O)c2C(c2ccccn2)N1CCCN1CCOCC1 (stereo not shown) | 1.95
64 | CCN1c2ccccc2NC2N=C(OC)C(c3ccccc3)C21 (stereo not shown) | 1.45
65 | CCN(CC)C(=O)CCNS(=O)(=O)c1ccc(C)cc1 | 10.9
66 | COc1ccc2c(c1)CC/C2=N\NC(=O)c1ccccc1 | -3.69

Row | Compound | hERG current change (%, negative = inhibition) at 10uM [%]
67 | CCOc1ccc(C(=O)NC(=S)Nc2ccccc2N2CCOCC2)cc1Br | -0.723
68 | COc1ccccc1CNC(=O)CCS(=O)(=O)c1cccs1 | 15.7
69 | Cc1cccc(CCNS(=O)(=O)c2ccc3c(c2)NC(=O)CO3)c1 | 3.2
70 | CCOC(=O)c1sc(NC(=O)CSc2n[nH]c(CC(C)C)n2)nc1C | -21.2
71 | O=C(Nc1ccccc1)c1ncoc1-c1ccc(Cl)cc1 | 15.4
72 | CC(C)OC(=O)CSc1nnc(-c2ccc(C(C)(C)C)cc2)n1N | -11.1
73 | Cc1ccc(C)c(N(CC(=O)N2CCCC2)S(C)(=O)=O)c1 | 12.2
74 | COc1cc(OC)c2c(c1)S(=O)(=O)C(c1ccccc1)=C2N | 19.3
75 | O=C(NC(=S)Nc1cc([N+](=O)[O-])ccc1O)c1cccnc1 | 6.18
76 | Cc1ccc(NC(=O)Nc2cnccn2)c(C)c1 | 13.8
77 | O=C(NCCc1ccccc1)c1ccc2nccnc2c1 | 12.6
78 | CCOC(=O)C(C)Sc1nnc(-c2ccccc2O)n1Cc1ccccc1 (stereo not shown) | -19.6
79 | O=C(N/N=C/c1ccc(Br)s1)Nc1ccccc1 | 4.13
80 | CCCSc1cc(=O)n(-c2ccccc2)nc1C(=O)O | 15.7
81 | O=C(CC1=NCCNC(c2ccccc2)C1)c1ccccc1O (stereo not shown) | -46.6
82 | Cc1ccc(CNC(=O)C2CCC(=O)N(Cc3ccc(Cl)cc3)C2)cc1F (stereo not shown) | -63.6
83 | Cc1sc2ncn(CC(=O)N3CCN(c4ccccn4)CC3)c(=O)c2c1S(=O)(=O)N1CCCCC1 | -36.7
84 | CC(C)(C)c1ccc(-n2nc(C(N)=O)c(O)cc2=O)cc1 | 12.9
85 | CC1(C)O[C@@H]2[C@H](O1)[C@@H](CO)O[C@H]2n1cnc2c(=O)[nH]cnc21 | 22.3
86 | CCOc1ccc(/C=C/C(=O)Nc2ccc(C(N)=O)cc2)cc1OC | 1.76
87 | CC(Sc1nc2ncc(Cl)cc2[nH]1)C(=O)NC1(C#N)CCCCC1 (stereo not shown) | -0.999
88 | Cc1cc(=O)[nH]c(N/N=C/C(C)c2ccccc2)n1 (stereo not shown) | 7.54
